Measurements published in article PMC7956155, “Design and Evaluation of Peptide Dual-Agonists of GLP-1 and NPY2 Receptors for Glucoregulation and Weight Loss with Mitigated Nausea and Emesis” (Journal of Medicinal Chemistry, 2021).
Square brackets hold non-standard residues; d marks the D form. Ends that are not written are not given here.

Key:
[1] = target: T1, human Y2-R (Homo sapiens, UniProt P49146); experiment: cAMP FRET reporter (H188) assay at Y2-R: counteraction of adenosine-stimulated cAMP in HEK293 cells; format: cell-based
T1 sequence (P49146 1-381): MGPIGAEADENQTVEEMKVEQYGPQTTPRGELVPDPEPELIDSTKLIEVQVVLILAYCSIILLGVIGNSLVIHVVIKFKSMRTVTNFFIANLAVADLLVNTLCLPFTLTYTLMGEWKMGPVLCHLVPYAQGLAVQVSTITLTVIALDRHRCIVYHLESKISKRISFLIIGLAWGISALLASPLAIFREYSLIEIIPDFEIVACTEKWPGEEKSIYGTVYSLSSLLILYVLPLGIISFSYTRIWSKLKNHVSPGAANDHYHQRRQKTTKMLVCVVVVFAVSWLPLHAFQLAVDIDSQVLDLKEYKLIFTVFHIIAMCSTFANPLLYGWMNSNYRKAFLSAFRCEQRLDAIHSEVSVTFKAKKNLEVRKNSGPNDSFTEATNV

[2] = target: T2, rat GLP-1R (Rattus norvegicus, UniProt P32301); experiment: cAMP FRET reporter (H188) agonism assay at rat GLP-1R in HEK293 C24 cells; format: cell-based
T2 sequence (P32301 22-463): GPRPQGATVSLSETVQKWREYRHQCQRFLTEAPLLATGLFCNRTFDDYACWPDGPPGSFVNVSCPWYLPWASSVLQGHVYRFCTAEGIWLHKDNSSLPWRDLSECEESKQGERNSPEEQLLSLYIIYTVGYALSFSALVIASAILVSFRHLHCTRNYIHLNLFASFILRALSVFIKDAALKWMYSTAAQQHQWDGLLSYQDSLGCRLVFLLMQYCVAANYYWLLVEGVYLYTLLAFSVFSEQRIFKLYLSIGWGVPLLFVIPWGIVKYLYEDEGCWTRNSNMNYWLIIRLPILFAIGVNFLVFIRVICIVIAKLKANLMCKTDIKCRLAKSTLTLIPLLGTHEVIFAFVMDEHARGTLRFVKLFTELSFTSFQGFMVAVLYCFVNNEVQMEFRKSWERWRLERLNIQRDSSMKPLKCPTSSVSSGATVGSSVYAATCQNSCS

N=C(N)NCCC[C@H](NC(=O)CC1(CC(=O)N2CCN(C3c4ccccc4NC(=O)c4ccccc43)CC2)CCCC1)C(=O)NCCn1c(=O)n(-c2ccccc2)n(-c2ccccc2)c1=O (stereo partly drawn) [BIIE0246, reference compound]
block of GEP44 agonism at Y2-R by antagonist [1]: blocked GEP44 agonism

CC[C@H](C)[C@H](NC(=O)[C@H](Cc1ccccc1)NC(=O)[C@H](CCC(=O)O)NC(=O)[C@H](CCCNC(=N)N)NC(=O)[C@@H](NC(=O)[C@H](C)NC(=O)[C@H](CCC(=O)O)NC(=O)[C@H](CCC(=O)O)NC(=O)[C@H](CCC(=O)O)NC(=O)[C@H](CC(C)C)NC(=O)[C@H](Cc1ccc(O)cc1)NC(=O)[C@H](CCCCN=[N+]=[N-])NC(=O)[C@H](CO)NC(=O)[C@H](CC(C)C)NC(=O)[C@H](CC(=O)O)NC(=O)[C@H](CO)NC(=O)[C@@H](NC(=O)[C@H](Cc1ccccc1)NC(=O)[C@@H](NC(=O)CNC(=O)[C@H](CCC(N)=O)NC(=O)[C@@H](CO)NC(=O)[C@@H](N)Cc1c[nH]cn1)[C@@H](C)O)[C@@H](C)O)C(C)C)C(=O)N[C@@H](C)C(=O)N[C@@H](Cc1c[nH]c2ccccc12)C(=O)N[C@@H](CC(C)C)C(=O)N[C@@H](CCCCN)C(=O)N[C@@H](CC(N)=O)C(=O)NCC(=O)NCC(=O)N1CCC[C@H]1C(=O)N[C@@H](CO)C(=O)N[C@@H](CCCNC(=N)N)C(=O)N[C@@H](Cc1c[nH]cn1)C(=O)N[C@@H](Cc1ccc(O)cc1)C(=O)N[C@@H](CC(C)C)C(=O)N[C@@H](CC(N)=O)C(=O)N[C@@H](CC(C)C)C(=O)N[C@H](C(=O)N[C@H](C(=O)N[C@@H](CCCNC(=N)N)C(=O)N[C@@H](CCC(N)=O)C(=O)N[C@@H](CCCNC(=N)N)C(=O)N[C@@H](Cc1ccc(O)cc1)C(N)=O)[C@@H](C)O)C(C)C [GEP44]
EC50 ([2]; HEK293 C24 H188 cells transfected with rat GLP-1R, cAMP FRET): 0.48 nM

H[dS]QGTFTSDLSKQMEEEAVRLFIEWLKNGGPSRHYLNLVTRQRY-NH2 [EP44]
Hill Coeff., dose-response at rat GLP-1R (Figure S10) [2]: 0.788
